Here are results for 74 sequences from the supplement of paper PMC12067230.

Single values of this set are uncertain.
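Further: [psi-pin-] Saccharomyces cerevisiae expressing SupN fusions, induced by 100 µM Cu2SO4, selected 7 d at 30 °C without adenine and uracil, scored by deep sequencing of output versus input.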

The nature of one data set: amyloid nucleation score relative to library mode (yeast Sup35 reporter selection) (log enrichment difference); higher = more amyloid nucleation; sequences are the first 22 residues of the Bri2 peptide extended by up to 12 random residues. Particulars: random library (experiment): 1;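 active = nucleation score significantly above 0 at FDR 0.05; inactive = not significantly above 0 or absent from output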.
As for EASNCFAIRHFENKFAVETLICRKL, the amyloid nucleation score result is “inactive”.

As to EASNCFAIRHFENKFAVETLICRKN, the amyloid nucleation score entry was “inactive”.

In turn, EASNCFAIRHFENKFAVETLICRKPAWNLQTMWE gave an amyloid nucleation score of 1.18.

For EASNCFAIRHFENKFAVETLICRKPTWNRCVRVL, the amyloid nucleation score result was “inactive”.

As to EASNCFAIRHFENKFAVETLICRKQWAVQAHLAA, the amyloid nucleation score result is “inactive”.

Consider EASNCFAIRHFENKFAVETLICRKRCNLSYGAGQ, for which the amyloid nucleation score entry was “inactive”.

Turning to EASNCFAIRHFENKFAVETLICRKRDAPTAKACL, the amyloid nucleation score entry is “inactive”.

EASNCFAIRHFENKFAVETLICRKRVPRTLAGLV yielded an amyloid nucleation score of -0.129.

Consider EASNCFAIRHFENKFAVETLICRKSRRCRVCVAE, for which the amyloid nucleation score entry is “inactive”.

On to EASNCFAIRHFENKFAVETLICRKTCFDRRPGAL, for which the amyloid nucleation score result was “inactive”.

For EASNCFAIRHFENKFAVETLICRKTSTGCMMQGY, the amyloid nucleation score result was “inactive”.

In the case of EASNCFAIRHFENKFAVETLICRKVMLTRMGIGL, the amyloid nucleation score entry is “inactive”.

Turning to EASNCFAIRHFENKFAVETLICRKVRSIQGYL, the amyloid nucleation score is 2.16.

For the sequence EASNCFAIRHFENKFAVETLICRKVVTFTINRRM, the amyloid nucleation score entry was “inactive”.

As to EASNCFAIRHFENKFAVETLICRKWCNGPTDAAG, the amyloid nucleation score entry was “inactive”.

As for EASNCFAIRHFENKFAVETLICRL, the amyloid nucleation score entry is “inactive”.

Take EASNCFAIRHFENKFAVETLICRLAGSYASGVRR: the amyloid nucleation score entry is “inactive”.

Consider EASNCFAIRHFENKFAVETLICRLAKANRRELSA, for which the amyloid nucleation score entry is “inactive”.

For EASNCFAIRHFENKFAVETLICRLAPVSLFRCGW, the amyloid nucleation score entry was “inactive”.

As to EASNCFAIRHFENKFAVETLICRLARCDVAHWKW, the amyloid nucleation score result is “inactive”.

Consider EASNCFAIRHFENKFAVETLICRLARRQVYQVLR, for which the amyloid nucleation score result is “inactive”.

As for EASNCFAIRHFENKFAVETLICRLAVTYQGNQWT, the amyloid nucleation score entry is “inactive”.

On to EASNCFAIRHFENKFAVETLICRLCQRSAGRQRR, for which the amyloid nucleation score entry is “inactive”.

In turn, EASNCFAIRHFENKFAVETLICRLCWRCARPGVA showed an amyloid nucleation score of 0.841.

Take EASNCFAIRHFENKFAVETLICRLE: the amyloid nucleation score result was “inactive”.

EASNCFAIRHFENKFAVETLICRLEPSCEWEGG: the amyloid nucleation score entry was “inactive”.

EASNCFAIRHFENKFAVETLICRLERLYGLTVSC: the amyloid nucleation score entry was “inactive”.

With EASNCFAIRHFENKFAVETLICRLFLSRCVKALQ, the amyloid nucleation score entry is “inactive”.

Consider EASNCFAIRHFENKFAVETLICRLGIESDSFSSR, for which the amyloid nucleation score was 3.17.

In the case of EASNCFAIRHFENKFAVETLICRLGLSQLTWMGG, the amyloid nucleation score entry is “inactive”.

Take EASNCFAIRHFENKFAVETLICRLGRMYMCTMGA: the amyloid nucleation score entry is “inactive”.

In the case of EASNCFAIRHFENKFAVETLICRLGSALGRGQEP, the amyloid nucleation score came to 0.547.

For EASNCFAIRHFENKFAVETLICRLGTHRQMCPLD, the amyloid nucleation score entry was “inactive”.

The sequence EASNCFAIRHFENKFAVETLICRLGVGYTACVGG registered an amyloid nucleation score of 0.627.

Consider EASNCFAIRHFENKFAVETLICRLGVTAVKGWLW, for which the amyloid nucleation score entry is “inactive”.

EASNCFAIRHFENKFAVETLICRLIWRNKIGWWS: the amyloid nucleation score was -0.029.

Still in this data set, the particulars now being: random library (experiment): 2.
Turning to EASNCFAIRHFENKFAVETLICRKLMRS, the amyloid nucleation score result was “inactive”.

Take EASNCFAIRHFENKFAVETLICRKLTCISRAWFM: the amyloid nucleation score result was “inactive”.

Take EASNCFAIRHFENKFAVETLICRKMSYMGASTDS: the amyloid nucleation score came out at 0.478.

On to EASNCFAIRHFENKFAVETLICRKNNDWRSLICY, for which the amyloid nucleation score result is “inactive”.

For EASNCFAIRHFENKFAVETLICRKPAMLFPEWS, the amyloid nucleation score entry was “inactive”.

EASNCFAIRHFENKFAVETLICRKVIESNVVYES gave an amyloid nucleation score of 1.22.

EASNCFAIRHFENKFAVETLICRKVWETGLWRLS gave an amyloid nucleation score of 4.55.

On to EASNCFAIRHFENKFAVETLICRKWSSQDVFLDC, for which the amyloid nucleation score result was “inactive”.

EASNCFAIRHFENKFAVETLICRKYCTHGELRCL: the amyloid nucleation score result was “inactive”.

Sequence EASNCFAIRHFENKFAVETLICRKYTREE gave an amyloid nucleation score of -0.122.

As to EASNCFAIRHFENKFAVETLICRLCEALSNVKLC, the amyloid nucleation score entry is “inactive”.

Take EASNCFAIRHFENKFAVETLICRLCILVGRLRMR: the amyloid nucleation score result was “inactive”.

As to EASNCFAIRHFENKFAVETLICRLCWESVWGPGE, the amyloid nucleation score result is “inactive”.

Consider EASNCFAIRHFENKFAVETLICRLDIGIGWCLWR, for which the amyloid nucleation score entry is “inactive”.

On to EASNCFAIRHFENKFAVETLICRLDWLV, for which the amyloid nucleation score result is “inactive”.

EASNCFAIRHFENKFAVETLICRLECSRKMIFQV showed an amyloid nucleation score of 1.4.

In turn, EASNCFAIRHFENKFAVETLICRLELGWWRIGRA returned an amyloid nucleation score of -0.223.

For the sequence EASNCFAIRHFENKFAVETLICRLERLECLKCT, the amyloid nucleation score entry is “inactive”.

Consider EASNCFAIRHFENKFAVETLICRLFTIGTGVSER, for which the amyloid nucleation score turned out to be 4.2.

As for EASNCFAIRHFENKFAVETLICRLHKCTFRNLFL, the amyloid nucleation score result was “inactive”.

Regarding EASNCFAIRHFENKFAVETLICRLHQ, the amyloid nucleation score entry is “inactive”.

EASNCFAIRHFENKFAVETLICRLHYSKFFICRR: the amyloid nucleation score result was “inactive”.

Consider EASNCFAIRHFENKFAVETLICRLIASYI, for which the amyloid nucleation score result is “inactive”.

Still in this data set, the particulars now being: random library (experiment): 3.
EASNCFAIRHFENKFAVETLICRKPEKEMPRFGL: the amyloid nucleation score entry is “inactive”.

In the case of EASNCFAIRHFENKFAVETLICRKRSRRPQKGAL, the amyloid nucleation score entry is “inactive”.

Sequence EASNCFAIRHFENKFAVETLICRKS had an amyloid nucleation score of 0.798.

Consider EASNCFAIRHFENKFAVETLICRKSVRDPRVPLG, for which the amyloid nucleation score result is “inactive”.

For the sequence EASNCFAIRHFENKFAVETLICRKTC, the amyloid nucleation score result is “inactive”.

As to EASNCFAIRHFENKFAVETLICRKTGQIWCLWPR, the amyloid nucleation score entry is “inactive”.

As to EASNCFAIRHFENKFAVETLICRKVVMPDYGRLR, the amyloid nucleation score result was “inactive”.

With EASNCFAIRHFENKFAVETLICRLAGLWLRSPVV, the amyloid nucleation score entry is “inactive”.

On to EASNCFAIRHFENKFAVETLICRLASNWYMTSLA, for which the amyloid nucleation score was -0.0354.

Consider EASNCFAIRHFENKFAVETLICRLCGECKSRSFR, for which the amyloid nucleation score was -0.111.

For the sequence EASNCFAIRHFENKFAVETLICRLDTWLIMGSAH, the amyloid nucleation score result is “inactive”.

For the sequence EASNCFAIRHFENKFAVETLICRLFECKV, the amyloid nucleation score result is “inactive”.

For the sequence EASNCFAIRHFENKFAVETLICRLFRMLFSGHCG, the amyloid nucleation score entry is “inactive”.

For the sequence EASNCFAIRHFENKFAVETLICRLGLLGTTVHRV, the amyloid nucleation score result was “inactive”.

Regarding EASNCFAIRHFENKFAVETLICRLHDLWCRGKNA, the amyloid nucleation score result is “inactive”.
